This is one part of the list. Sequences were assembled here from the parent chain. Values near 0.05 are background.
B1: TEV protease; numbered along this chain (parent)
chain: MGESLFKGPRDYNPISSSICHLTNESDGHTTSLYGIGFGPFIITNKHLFRRNNGTLVVQSLHGVFKVKDTTTLQQHLVDGRDMIIIRMPKDFPPFPQKLKFREPQREERICLVTTNFQTKSMSSMVSDTSCTFPSGDGIFWKHWIQTKDGQCGSPLVSTRDGFIVGIHSASNFTNTNNYFTSVPKNFMELLTNQEAQQWVSGWRLNADSVLWGGHKVFMVKPEEPFQPVKEATQL

Variants of: B1
Test: raw area under fraction-flipped curve 0-4 h after induction (AUC4h, not background-subtracted), DNA-recorder readout of cleavage of the substrate (dimensionless); higher = more cleavage of the substrate by the protease variant
Conditions: temperature: 34 °C; time window: 0-4 h after rhamnose induction
Experimental: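 In vivo DNA recorder in E. coli TOP10(DE3) ΔrhaA at 34 °C. Each TEVp single-site mutant (parent TEVp 0) is paired with a single-site variant of the 7-mer TEVs (canonical ENLYFQ|S). The substrate sits between flexible linkers in a Bxb1-sfGFP-TEVs-SsrA fusion, so cleavage stabilises Bxb1 and speeds flipping of a recombination array, read by NGS. The value is the raw area under the fraction-flipped curve over 0-4 h after rhamnose induction (AUC4h), with ≥20 reads per time point. It is not background-subtracted; inactive controls average about 0.047.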
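Further: Bxb1 expression induced with 0.2% (w/v) L-rhamnose at OD600 near 0.5, cultures sampled hourly, flipped fraction per protease–substrate barcode pair counted by paired-end Illumina sequencing.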

Row | Variant | area with substrate ENLYAQS | area with substrate ENLYCQS | area with substrate ENLYDQS | area with substrate ENLYEQS | area with substrate ENLYGQS | area with substrate ENLYHQS | area with substrate ENLYIQS | area with substrate ENLYKQS | area with substrate ENLYNQS | area with substrate ENLYPQS | area with substrate ENLYQQS | area with substrate ENLYSQS | area with substrate ENLYVQS | area with substrate ENLYWQS | area with substrate ENLYYQS | area with substrate ENLYLQS | area with substrate ENLYMQS | area with substrate ENLYRQS | area with substrate ENLYTQS
1 | N13I | 0.0804 | 0.0693 | 0.04 | 0.0734 | 0.0857 | 0.0622 | 0.101 | 0.0533 | 0.0605 | 0.077 | 0.0776 | 0.0666 | 0.0889 | 0.0754 | 0.0647 |  |  |  | 
2 | N13L | 0.066 |  | 0.0663 | 0.0429 | 0.0614 | 0.0688 | 0.142 | 0.0753 | 0.066 | 0.0859 | 0.0586 | 0.0871 | 0.124 | 0.0743 |  | 0.0934 | 0.0841 | 0.056 | 0.0559
3 | I19Y | 0.0667 |  | 0.0494 | 0.0899 | 0.0658 | 0.0555 | 0.0918 | 0.0488 | 0.06 | 0.0557 |  | 0.0458 | 0.0733 | 0.0466 | 0.0599 |  | 0.0746 | 0.0617 | 
4 | I19V | 0.0768 | 0.0801 | 0.0681 | 0.0513 |  | 0.0721 | 0.141 | 0.0644 | 0.0662 |  | 0.0561 |  | 0.116 | 0.0694 |  | 0.0747 |  |  | 0.0858
5 | I19K | 0.0524 |  |  | 0.0536 |  | 0.0251 | 0.0612 | 0.0538 |  |  |  |  |  | 0.049 | 0.0572 |  | 0.0753 |  | 0.0563
6 | I19P | 0.0356 |  | 0.0446 | 0.0466 | 0.0481 | 0.0427 | 0.0464 | 0.047 | 0.0443 | 0.0396 | 0.0405 |  | 0.0425 | 0.0506 | 0.0467 | 0.0446 | 0.0435 | 0.0439 | 0.0443
7 | K7D | 0.0705 |  | 0.0709 |  | 0.0612 | 0.0586 | 0.116 | 0.0713 | 0.0612 | 0.0692 | 0.0583 | 0.0692 |  | 0.0831 |  |  | 0.0095 | 0.0739 | 0.0593
8 | E25N | 0.0784 |  | 0.0601 | 0.0916 |  | 0.0692 |  | 0.0576 | 0.0751 | 0.082 | 0.0622 |  | 0.112 | 0.122 |  | 0.0842 | 0.0938 | 0.0611 | 0.0769
9 | E25Y | 0.0363 | 0.0616 | 0.0606 | 0.08 | 0.0794 | 0.0588 | 0.118 | 0.0649 | 0.0789 | 0.0646 | 0.0644 | 0.0716 | 0.143 | 0.0779 |  |  | 0.0842 | 0.0631 | 
10 | T30L | 0.0798 | 0.0782 | 0.051 | 0.0714 | 0.0706 | 0.0729 | 0.102 |  |  | 0.0786 | 0.0571 | 0.0707 | 0.0802 | 0.0862 | 0.0785 |  | 0.101 | 0.0625 | 0.087
11 | D27C | 0.0566 | 0.13 | 0.0617 | 0.0576 | 0.0532 | 0.0643 | 0.0721 | 0.0446 | 0.0558 | 0.0572 | 0.0555 | 0.069 | 0.111 | 0.066 |  | 0.0845 | 0.0831 | 0.0564 | 
12 | H21A | 0.0642 |  | 0.0693 | 0.0713 | 0.0613 | 0.0688 | 0.111 | 0.0568 | 0.0896 | 0.0614 | 0.0689 | 0.087 | 0.0953 |  | 0.0822 | 0.0726 | 0.107 | 0.059 | 
13 | H21C | 0.0854 | 0.0945 | 0.0625 |  | 0.0745 | 0.0608 | 0.101 | 0.0687 | 0.0661 | 0.0663 | 0.0576 | 0.0935 | 0.0722 | 0.0813 | 0.0588 | 0.087 | 0.0634 |  | 
14 | H21Q | 0.0705 | 0.0934 | 0.0616 | 0.0676 | 0.0631 | 0.0749 | 0.113 | 0.0601 | 0.0633 | 0.0715 | 0.0656 | 0.0673 | 0.111 | 0.0723 | 0.0787 |  | 0.0944 | 0.0512 | 0.0789
15 | H29N | 0.101 |  | 0.055 | 0.0679 | 0.0729 | 0.0653 | 0.111 | 0.0631 | 0.0638 | 0.0752 | 0.0923 | 0.049 | 0.101 | 0.0774 | 0.0652 |  | 0.059 | 0.0376 | 0.0784
16 | H29C | 0.0892 |  | 0.0648 | 0.0662 | 0.0719 | 0.0694 | 0.122 | 0.0713 |  | 0.0768 | 0.0685 | 0.0797 | 0.0642 | 0.0649 | 0.134 | 0.149 | 0.0866 | 0.0591 | 
17 | L22P | 0.0264 | 0.0532 | 0.0413 | 0.0441 | 0.0469 | 0.0392 | 0.0538 | 0.0429 | 0.0423 | 0.0538 | 0.0374 | 0.0368 | 0.0225 | 0.0329 |  |  | 0.0434 | 0.0505 | 0.0345
18 | L22I | 0.0793 |  | 0.0626 | 0.0641 | 0.0247 | 0.0687 | 0.122 | 0.0455 | 0.0832 | 0.0719 | 0.0556 |  | 0.126 | 0.0869 |  |  | 0.0907 | 0.0618 | 0.0821
19 | L22E | 0.0391 | 0.0476 | 0.044 | 0.0421 | 0.0481 | 0.0613 | 0.0416 | 0.0245 | 0.0492 |  |  | 0.0639 | 0.0451 | 0.0447 |  | 0.0428 | 0.0482 | 0.0628 | 0.044
20 | I42A | 0.0523 | 0.0577 | 0.0391 | 0.055 | 0.0728 | 0.0519 | 0.0703 | 0.0476 |  | 0.0542 |  | 0.0487 | 0.0737 | 0.0593 |  |  |  | 0.0481 | 
21 | N24E | 0.0659 | 0.0646 | 0.051 | 0.0671 | 0.0633 | 0.0635 | 0.138 | 0.0613 | 0.0623 | 0.058 | 0.0667 | 0.0665 | 0.0906 | 0.0641 | 0.0574 | 0.0692 |  | 0.0678 | 
22 | T23Y | 0.0825 |  | 0.0635 | 0.0638 |  | 0.0695 | 0.101 | 0.0441 | 0.0691 |  |  |  | 0.0907 |  | 0.0595 |  | 0.0691 | 0.0832 | 0.079
23 | Y12L | 0.0762 |  |  | 0.0605 | 0.0691 | 0.0574 | 0.124 | 0.0485 | 0.0761 | 0.103 |  | 0.0644 | 0.109 | 0.0902 |  |  | 0.0981 | 0.051 | 

From the supplement of paper PMC12217912
